{"source": "PubChem BioAssay AID504332", "about": "(National Center for Advancing Translational Sciences (NCATS), 2011)", "note": "About 31,000 (8.9%) of roughly 350,000 compounds were called active. This list was built around the results that the source calls inconclusive (neither active nor inactive); the mix of calls is not that of the screen. The call rests on the fitted dose curve; in most records, active means well fitted inhibition curve with a large enough effect; inconclusive means small, poorly fitted or top-dose-only effect; inactive means no such curve, though single readings can be large or run the other way. Potencies of inconclusive entries are doubtful fits and often do not repeat. On the % scale 0 is the no-effect control and ±100 the full control effect; potency means the concentration at half of the fitted maximal effect; tags describe the fitted curve by direction and shape.", "data": [{"target": "Histone-lysine N-methyltransferase EHMT2 (Homo sapiens) (UniProt Q96KQ7)", "sequence (Q96KQ7 whole entry, looked up)": "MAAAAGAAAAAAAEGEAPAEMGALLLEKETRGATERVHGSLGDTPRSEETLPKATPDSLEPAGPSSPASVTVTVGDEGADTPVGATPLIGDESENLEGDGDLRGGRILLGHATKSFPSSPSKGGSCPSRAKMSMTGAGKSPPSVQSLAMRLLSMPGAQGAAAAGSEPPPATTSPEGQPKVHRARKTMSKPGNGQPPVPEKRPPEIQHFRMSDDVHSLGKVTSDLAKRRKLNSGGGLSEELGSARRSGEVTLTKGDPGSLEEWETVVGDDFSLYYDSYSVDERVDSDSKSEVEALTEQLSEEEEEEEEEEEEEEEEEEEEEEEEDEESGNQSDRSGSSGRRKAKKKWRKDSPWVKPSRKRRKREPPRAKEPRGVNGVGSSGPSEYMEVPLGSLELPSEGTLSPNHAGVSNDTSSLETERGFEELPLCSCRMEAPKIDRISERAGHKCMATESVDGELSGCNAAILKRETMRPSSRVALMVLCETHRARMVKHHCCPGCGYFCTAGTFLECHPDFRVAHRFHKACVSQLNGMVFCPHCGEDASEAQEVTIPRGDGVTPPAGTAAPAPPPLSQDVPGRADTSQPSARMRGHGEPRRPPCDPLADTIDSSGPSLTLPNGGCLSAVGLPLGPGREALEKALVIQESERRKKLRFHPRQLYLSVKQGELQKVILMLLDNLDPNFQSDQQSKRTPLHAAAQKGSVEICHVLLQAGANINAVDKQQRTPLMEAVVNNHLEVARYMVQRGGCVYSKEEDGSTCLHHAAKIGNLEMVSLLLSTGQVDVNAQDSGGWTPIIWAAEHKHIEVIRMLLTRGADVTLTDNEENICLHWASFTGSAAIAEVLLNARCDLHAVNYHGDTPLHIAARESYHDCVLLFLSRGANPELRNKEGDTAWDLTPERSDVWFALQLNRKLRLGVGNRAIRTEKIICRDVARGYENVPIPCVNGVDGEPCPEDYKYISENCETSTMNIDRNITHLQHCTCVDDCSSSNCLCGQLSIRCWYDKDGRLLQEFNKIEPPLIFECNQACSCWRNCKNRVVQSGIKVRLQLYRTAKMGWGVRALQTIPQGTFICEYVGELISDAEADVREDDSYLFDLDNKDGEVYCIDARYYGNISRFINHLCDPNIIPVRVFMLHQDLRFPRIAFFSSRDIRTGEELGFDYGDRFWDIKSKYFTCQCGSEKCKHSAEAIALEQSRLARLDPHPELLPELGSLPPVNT", "experiment": "qHTS Assay for Inhibitors of Histone Lysine Methyltransferase G9a; further: nearly all actives have a fitted effect of over 75% in size", "settings": "G9a H3K9 monomethylation, AlphaScreen, 2 h; activity, negative = inhibition: at 59 µM (top of the series) unless noted", "how_it_was_run": "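AlphaScreen detection with an anti-monomethyl H3K9 antibody quantified product after a 2 h room-temperature reaction containing 500 nM biotinylated H3K9 peptide, 20 µM SAM and 20 nM enzyme, which had been preincubated 15 min with compound.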", "values": [{"smiles": "CC(C(=O)N1CC2(C)CC1CC(C)(C)C2)N1C(=O)c2ccccc2C1=O", "note": "(centres undefined)", "Potency": "inconclusive: 44.7 µM [inhibitor, partial curve]"}, {"smiles": "CC(C)CNC(=O)C(=O)Nc1c2c(nn1-c1ccccc1)CS(=O)(=O)C2", "Potency": "inconclusive: 17.8 µM [inhibitor, partial curve]"}, {"smiles": "Fc1cccc(Cl)c1CNn1cn[nH]c1=S", "Potency": "active: 8.91 µM"}, {"smiles": "CN(CC(CC(=O)Nc1nncs1)c1ccccc1)S(=O)(=O)c1ccc(Br)cc1", "note": "(centres undefined)", "Potency": "inconclusive: 7.94 µM [inhibitor, full curve, poor fit]"}, {"smiles": "Cc1ccc(S(=O)(=O)NNC(=O)c2ccc(O)cc2)cc1", "Potency": "inconclusive: 25.1 µM [inhibitor, single point]"}, {"smiles": "Cc1cccc(OCCCN2CCCCCC2)c1", "Potency": "active: 6.31 µM"}, {"smiles": "O=C(NC(=S)Nc1cc(C(F)(F)F)ccc1N1CCOCC1)c1ccc(-c2cccc(Cl)c2)o1", "Potency": "inconclusive: 35.5 µM [inhibitor, single point]"}, {"smiles": "CCOC(=O)c1cc(NC(=O)/C=C\\C(=O)O)ccc1Cl", "activity, negative = inhibition": "inconclusive: -72% [inhibitor]"}, {"smiles": "CC(C)(C)C1CCc2onc(C(=O)Nc3cnn(Cc4ccc(F)cc4)c3)c2C1", "note": "(centres undefined)", "Potency": "inconclusive: 89.1 µM [inhibitor, partial curve, poor fit]"}, {"smiles": "CC(C)(C)c1ccc(OC(=O)N2CCOCC2)cc1", "Potency": "inactive"}, {"smiles": "CCCCN(Cc1ccccc1)c1ncnc2nc[nH]c12", "Potency": "inconclusive: 79.4 µM [inhibitor, single point]"}, {"smiles": "CCn1ccc2cc(S(=O)(=O)N3CCC(C(=O)NCc4cccc(Cl)c4)CC3)ccc21", "Potency": "inactive"}, {"smiles": "COc1ccc(NC(=O)N2CC[C@@]3(CCCN(C(=O)c4ccco4)C3)C2)cc1", "activity, negative = inhibition": "inactive: 2.7% [at 12.7 µM]"}, {"smiles": "CC1(OC(=O)CCc2ccccc2)C(=O)C=C2C=C(c3ccc(C#N)cc3)N(Cc3ccco3)C=C2C1=O", "note": "(centres undefined)", "Potency": "inconclusive: 8.91 µM [inhibitor, single point]"}, {"smiles": "CCOC(=O)C1=C(CCc2ccccc2)NC(=O)NC1c1cccc([N+](=O)[O-])c1", "note": "(centres undefined)", "Potency": "inconclusive: 89.1 µM [inhibitor, single point]"}, {"smiles": "CCNC(=S)N/N=C(\\C)c1ccc2ccccc2c1", "Potency": "inconclusive: 89.1 µM [inhibitor, single point]"}, {"smiles": "Cc1cccc(NC(=S)NNC(=O)c2csc(C)c2)c1", "Potency": "inconclusive: 20 µM [inhibitor, single point]"}, {"smiles": "Cc1occc1-c1n[nH]c(=S)n1CC(C)C", "Potency": "active: 4.47 µM"}, {"smiles": "COC(=O)c1ccc2c(=O)[nH]c(CCl)nc2c1", "Potency": "inactive"}, {"smiles": "O=C(O)C(c1ccccc1)N1C(=O)/C(=C\\c2ccc(-c3cccc(Cl)c3)o2)SC1=S", "note": "(centres undefined)", "Potency": "active: 39.8 µM"}, {"smiles": "CC1CC(O)(CC(O)(c2ccccc2)c2ccccc2)C(C)CN1C", "note": "(centres undefined)", "Potency": "inconclusive: 1.12 µM [inhibitor, single point]"}, {"smiles": "CCc1cc2c(NCc3ccccc3)nc(C)nc2s1", "Potency": "inconclusive: 1.41 µM [inhibitor, full curve]"}, {"smiles": "COC(=O)c1ccc(/C=N/NS(=O)(=O)c2cc(C)ccc2C)cc1", "Potency": "active: 2.51 µM"}, {"smiles": "COc1ccccc1/C=C/C=N/N1CCN(Cc2ccc(Cl)cc2)CC1", "activity, negative = inhibition": "inconclusive: -148% [inhibitor]"}, {"smiles": "CN(C)c1nc(N(C)C)nc(N2CC(=O)N(c3ccccc3)C2=N)n1", "Potency": "inconclusive: 12.6 µM [inhibitor, partial curve, poor fit]"}, {"smiles": "COc1ccc(Nc2ncnc3sccc23)c(OC)c1", "Potency": "inconclusive: 89.1 µM [inhibitor, single point]"}, {"smiles": "C/C=C/c1ccc(Oc2nnnn2-c2ccc(C(=O)O)cc2)c(OC)c1", "Potency": "inconclusive: 0.355 µM [inhibitor, partial curve, poor fit]"}, {"smiles": "O=C(COc1ccc(Br)cc1)Nc1cc(S(=O)(=O)N2CCCCC2)ccc1N1CCCCC1", "Potency": "inactive"}, {"smiles": "O=C(CN1CCN(Cc2ccccc2Cl)CC1)N/N=C/C=C/c1ccco1", "Potency": "inconclusive: 50.1 µM [inhibitor, partial curve]"}, {"smiles": "COc1ccc(-n2nc([N+](=O)[O-])c(=NCCc3ccc(C)cc3)n2O)cc1", "Potency": "inconclusive: 20 µM [inhibitor, partial curve, poor fit]"}, {"smiles": "CC1CCN(c2oc(-c3ccc(F)cc3)nc2C#N)CC1", "Potency": "active: 10 µM"}, {"smiles": "COC(=O)CN1C(=O)CSc2ccc(S(=O)(=O)Nc3ccc(C(C)=O)cc3)cc21", "Potency": "inactive"}, {"smiles": "CC(=O)N/C(=C\\c1ccccc1)C(=O)OC(C)C(=O)N(C)c1ccccc1", "note": "(centres undefined)", "Potency": "inactive"}, {"smiles": "CCN(CC)CCCn1c2c(c(SCC(=O)Nc3nc4ccccc4s3)nc1=O)CCC2", "Potency": "inconclusive: 50.1 µM [inhibitor, partial curve, poor fit]"}, {"smiles": "CC(C)C(=O)Nc1nnc(Cc2ccccc2)s1", "Potency": "inconclusive: 44.7 µM [inhibitor, partial curve, poor fit]"}, {"smiles": "Cc1ccc(S(=O)(=O)Nc2nc(C)c(C(=O)NNS(=O)(=O)c3ccccc3)s2)cc1", "Potency": "active: 50.1 µM"}, {"smiles": "O=C1NC(=S)N/C1=C/c1cc([N+](=O)[O-])ccc1N1CCOCC1", "Potency": "inconclusive: 70.8 µM [inhibitor, single point]"}, {"smiles": "COc1ccc(NC(=O)Cn2c(=O)c3cc(Cl)ccc3n3nncc23)cc1", "Potency": "inactive"}, {"smiles": "CNS(=O)(=O)c1cccc(C(=O)Nc2cccc(Cl)c2)c1", "Potency": "inconclusive: 39.8 µM [inhibitor, single point]"}, {"smiles": "COc1ccc(-c2nnc3n(CCc4ccccc4)c(=O)c4ccccc4n23)c(OC)c1", "Potency": "inconclusive: 70.8 µM [inhibitor, single point]"}, {"smiles": "COc1ccc(NC(=O)c2cc3n(n2)C(C(F)(F)F)CC(c2ccc4c(c2)OCO4)N3)cc1OC", "note": "(centres undefined)", "Potency": "active: 28.2 µM"}, {"smiles": "CCOC(=O)c1ccc(NC(=O)CSc2nc(C)cc(=O)[nH]2)cc1", "Potency": "inconclusive: 50.1 µM [inhibitor, partial curve, poor fit]"}, {"smiles": "C=CCN(C(=O)c1ccc2c(c1)nnn2C)c1ccccc1", "Potency": "inactive"}, {"smiles": "CCOC(=O)c1cnc2c(OC)cccc2c1N1CCN(c2ccc(OC)cc2)CC1", "Potency": "inconclusive: 2.24 µM [inhibitor, partial curve, poor fit]"}]}]}
